Reference: patent publication US8613927B2, “High affinity human antibodies to human nerve growth factor” (Regeneron Pharmaceuticals, Inc., priority 2007, dated 2013)

Target: T1, human NT-3 (Homo sapiens, UniProt P20783)
T1 sequence (P20783 139-257): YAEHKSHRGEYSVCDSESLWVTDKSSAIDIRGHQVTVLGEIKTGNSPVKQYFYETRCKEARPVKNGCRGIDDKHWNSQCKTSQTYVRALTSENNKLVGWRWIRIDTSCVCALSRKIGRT
Test: BIACORE cross-reactivity test, NT-3
Format: binding
Conditions: NT-3 1.25 nM to 40 nM; purified antibodies
Experimental: The anti-NGF antibodies were examined for binding cross-reactivity with human NT-3. Briefly, goat anti-human IgG polyclonal antibody was chemically linked to a CM5 chip. Anti-NGF monoclonal antibodies were injected forming a surface of about 50 to 900 RU of immobilized antibody through the interaction with the chip coupled polyclonal antibodies. […] Both association and dissociation phases were monitored and data were analyzed. Results are shown in Table 3 (NB=no binding activity observed).

B1: REGN476: HCVR/LCVR SEQ ID NO:224/226 and mutant hIgG4 SEQ ID NO:543 (antibody)
heavy: EVQLVESGGGLVQPGRSLRLSCAAPGFNFDDYAMHWVRQAPGKGLEWVSGISWNSGTIGYADSVKGRFTISRDNAKNSLYLQMNSLRAEDTALYYCAKEGVWFGKLFSSYGMDVWGQGTTVTVSSASTKGPSVFPLAPCSRSTSESTAALGCLVKDYFPEPVTVSWNSGALTSGVHTFPAVLQSSGLYSLSSVVTVPSSSLGTKTYTCNVDHKPSNTKVDKRV[human IgG4 Fc with S228P (EU numbers) omitted here]
VL: EIVMTQSPATLSVSPGERATLSCRASQSVTYNLDWYQQKPGQAPRLLIYGASTRATGIPARFSGSGSGTEFTLTISSLQSEDFAVYYCQQYNNWPYTFGQGTKLEIKR
  affinity for NT-3: none of the test antibodies exhibited measurable affinity
